From publication PMC4336329 (PLoS ONE, 2015)
Among all 310,000 compounds or so, about 14,000 (4.5%) showed an effect of 50% or more. Effects have a minus sign here. The list shows a part of the results.

These compounds were tested against human ether-à-go-go-related gene (hERG) potassium channel (human, UniProt Q12809) (assay: primary screen, population patch clamp on CHO cells stably expressing hERG).
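Note: peak tail current of the secondary pulse compared with the same well before compound.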

Chain of human ether-à-go-go-related gene (hERG) potassium channel (Q12809 whole entry, looked up): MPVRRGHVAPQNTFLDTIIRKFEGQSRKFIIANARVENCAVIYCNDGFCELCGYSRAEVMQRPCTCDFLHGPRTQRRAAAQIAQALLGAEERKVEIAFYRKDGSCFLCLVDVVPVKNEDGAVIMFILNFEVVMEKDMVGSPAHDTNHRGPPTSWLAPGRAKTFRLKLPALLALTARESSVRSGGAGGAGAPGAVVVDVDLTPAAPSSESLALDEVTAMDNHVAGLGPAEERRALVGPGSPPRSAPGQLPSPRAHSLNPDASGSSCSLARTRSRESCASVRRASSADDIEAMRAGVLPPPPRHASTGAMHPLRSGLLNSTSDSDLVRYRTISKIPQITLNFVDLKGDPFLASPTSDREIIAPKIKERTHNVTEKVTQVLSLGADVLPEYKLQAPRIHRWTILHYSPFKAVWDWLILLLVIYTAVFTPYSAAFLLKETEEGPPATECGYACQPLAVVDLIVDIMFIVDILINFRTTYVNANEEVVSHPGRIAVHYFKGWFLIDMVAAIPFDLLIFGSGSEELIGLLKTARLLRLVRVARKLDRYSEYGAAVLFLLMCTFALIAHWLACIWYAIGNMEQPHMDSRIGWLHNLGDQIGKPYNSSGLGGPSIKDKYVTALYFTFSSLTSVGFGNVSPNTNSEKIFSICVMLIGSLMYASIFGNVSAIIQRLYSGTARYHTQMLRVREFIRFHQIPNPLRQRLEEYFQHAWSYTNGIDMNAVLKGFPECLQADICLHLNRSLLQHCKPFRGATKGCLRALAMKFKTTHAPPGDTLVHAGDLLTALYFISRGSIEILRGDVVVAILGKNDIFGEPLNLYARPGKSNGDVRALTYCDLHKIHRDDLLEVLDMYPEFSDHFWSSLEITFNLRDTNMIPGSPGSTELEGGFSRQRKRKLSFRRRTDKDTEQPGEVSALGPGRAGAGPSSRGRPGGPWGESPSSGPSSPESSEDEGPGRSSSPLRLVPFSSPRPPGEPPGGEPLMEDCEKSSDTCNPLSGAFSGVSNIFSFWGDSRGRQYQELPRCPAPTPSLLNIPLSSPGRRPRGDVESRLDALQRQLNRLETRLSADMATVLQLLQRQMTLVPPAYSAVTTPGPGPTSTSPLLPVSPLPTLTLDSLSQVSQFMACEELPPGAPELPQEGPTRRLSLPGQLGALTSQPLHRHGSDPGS

First: CCOC(=O)c1sc2nc(SC)nc(-c3ccc(Cl)cc3)c2c1N
Second: Cc1cc(NC(=O)c2ccc(-c3ccc(F)c(Cl)c3)o2)no1
The “hERG current change (%, negative = inhibition) at 10uM” value of the first is higher: 18.5% for the first, 4.26% for the second.

Going from `O=C(CSC1=NS(=O)(=O)c2ccccc2N1)Nc1nccs1` to `O=C(Cn1cnc2ccccc2c1=O)Nc1nnc(SCc2ccc(Cl)cc2)s1`, the “hERG current change (%, negative = inhibition) at 10uM” value rises from 6.97% to 10.9%.

First: S=C(NC1CCCCC1)N1CCCCC1
Second: COc1ccc(S(=O)(=O)N2CCOCC2)cc1NC(=O)CN1CCCCCC1
The “hERG current change (%, negative = inhibition) at 10uM” value of the first is higher: 12.8% for the first, -1.81% for the second.

First: CCCNC(=O)CN(c1ccc(F)cc1)S(=O)(=O)c1ccc2c(c1)OCCO2
Second: Cc1ccccc1N1C(=O)CC(Nc2ccc3c(c2)OCO3)C1=O (stereo not drawn)
The “hERG current change (%, negative = inhibition) at 10uM” value of the first is lower: -1.52% for the first, 2.21% for the second.

Going from `Cc1ccc(-c2csc3nc4c5ccccc5c(NCCCN(C)C)nn4c(=O)c23)cc1` to `COn1c(-c2ccc(C)cc2)nc2ncccc21`, the “hERG current change (%, negative = inhibition) at 10uM” value rises from -78% to 10.9%.

Going from `CN(c1ccccc1)S(=O)(=O)c1cccc(NC(=O)c2cc3ccccc3oc2=O)c1` to `CCN(Cc1nc2ccccc2c(=O)[nH]1)C(=O)c1cccc(S(=O)(=O)N2CCc3ccccc32)c1`, the “hERG current change (%, negative = inhibition) at 10uM” value falls from 4.41% to -29.4%.

First: OCCNc1nc(Cl)nc(NCc2ccco2)n1
Second: CC1=C(C)CC(C(=O)NCc2c(F)cccc2Cl)C(C(=O)O)C1 (stereo not drawn)
The “hERG current change (%, negative = inhibition) at 10uM” value of the first is lower: 8.89% for the first, 12.9% for the second.

Compared with `C=CCn1cccc(C(=O)Nc2ccc(N(C)C)cc2)c1=O`, `Cc1nc2ccc(NC(=O)Cc3cccs3)cc2s1` is higher in “hERG current change (%, negative = inhibition) at 10uM” value: 3.66% for the first, 11% for the second.

First: COc1ccccc1Nc1nc2ccccc2[nH]1
Second: Cn1c(N=Nc2ccccc2)nc2ccccc21
The “hERG current change (%, negative = inhibition) at 10uM” value of the first is lower: -8.62% for the first, 4.08% for the second.

First: COC(=O)C(CCSC)NC(=O)c1cccc([N+](=O)[O-])c1 (stereo not drawn)
Second: NNC(=O)c1cccc(Cn2cc(Br)c([N+](=O)[O-])n2)c1
The “hERG current change (%, negative = inhibition) at 10uM” value of the first is lower: -12.1% for the first, 1.21% for the second.

First: Cc1ccc(-n2cc3c(=O)n(C)c(=O)n(C)c3c2)cc1C
Second: COc1ccc(Cl)cc1Nc1nc(C)cc(C)c1C(N)=O
The “hERG current change (%, negative = inhibition) at 10uM” value of the first is lower: -6.21% for the first, 14.3% for the second.

First: CC(=O)[C@@]1(O)C(C)CC2C3C=C(C)C4=Cc5c(cnn5-c5ccccc5)C[C@]4(C)C3C(O)C[C@@]21C (stereo partly drawn)
Second: CC(C)(C)C(=O)CSc1ncnc2c1cnn2-c1ccccc1
The “hERG current change (%, negative = inhibition) at 10uM” value of the first is higher: 2.48% for the first, -25.5% for the second.

Going from `Cc1cc(C(=O)N/N=C/c2cccnc2)cs1` to `Cc1ccc(C)c(NC(=O)N2CCc3ccccc3C2)c1`, the “hERG current change (%, negative = inhibition) at 10uM” value falls from 18.6% to 0.28%.

Going from `COC(=O)c1ccc(C(NC(=O)OCc2ccccc2)/C(F)=C/[C@@H](C)C(=O)O)cc1` (stereo partly drawn) to `Cc1ccc(C(=O)NNC(=S)NC(=O)COc2ccccc2)cc1`, the “hERG current change (%, negative = inhibition) at 10uM” value rises from 4.34% to 18.3%.

First: O=C1CC(c2ccc3c(c2)OCO3)c2cc3c(cc2N1)OCO3 (stereo not drawn)
Second: Oc1c(Cl)cc(Cl)cc1C=Nc1ccc2c(c1)OCCO2
The “hERG current change (%, negative = inhibition) at 10uM” value of the first is lower: -5.47% for the first, 21.2% for the second.

First: O=[N+]([O-])c1ccccc1/C=N/OCc1ccccc1
Second: Nc1cccc(Nc2ccccc2)c1
The “hERG current change (%, negative = inhibition) at 10uM” value of the first is lower: 19.2% for the first, 29.4% for the second.

Compared with `CCOC(=O)C1(Cc2ccc(OC)cc2)CCN(C(=O)c2cccc3nccnc23)CC1`, `COc1ccc(NC(=O)C2(c3ccc(NC(=O)c4ccc(C)cc4)cc3)CCCC2)cc1` is higher in “hERG current change (%, negative = inhibition) at 10uM” value: -31.4% for the first, 6.52% for the second.

First: COC(=O)c1sccc1-c1ccc(C(N)=O)o1
Second: COC(=O)c1cc(NC(=O)CSc2nnc(N)s2)ccc1Cl
The “hERG current change (%, negative = inhibition) at 10uM” value of the first is higher: 7.97% for the first, 6.01% for the second.

First: CC1CC(C)CN(CC(O)COCCOc2ccc(Br)cc2)C1.Cl (stereo not drawn)
Second: Cc1cc(C)cc(OCC(O)CN2CC(C)OC(C)C2)c1.Cl (stereo not drawn)
The “hERG current change (%, negative = inhibition) at 10uM” value of the first is lower: -71.6% for the first, 9.89% for the second.

First: O=C(Nc1ccccc1)OC1CCC2CC1CCC2OC(=O)Nc1ccccc1 (stereo not drawn)
Second: COc1ccccc1NS(=O)(=O)c1cccc(C(=O)NC2CCN(Cc3ccccc3)CC2)c1
The “hERG current change (%, negative = inhibition) at 10uM” value of the first is higher: 1.62% for the first, -56% for the second.

First: CC(O)(CC(=O)O)CC(=O)O
Second: O=C(O)CCCNC(=O)CCn1nnc2ccccc2c1=O
The “hERG current change (%, negative = inhibition) at 10uM” value of the first is higher: 21.5% for the first, 3.39% for the second.

Compared with `COc1ccc(C(=O)COC(=O)c2ccccc2NS(=O)(=O)c2ccc(O)c([N+](=O)[O-])c2)cc1`, `COc1ccc(OCC(=O)Nc2c(C(=O)N(CCN(C)C)Cc3ccco3)oc3ccccc23)cc1` is lower in “hERG current change (%, negative = inhibition) at 10uM” value: -0.482% for the first, -77% for the second.

Compared with `CC(=O)c1ccc(NS(=O)(=O)c2cc3c(cc2C)N(C(C)=O)CCO3)cc1`, `COC(=O)c1cc(S(=O)(=O)Nc2cc(S(=O)(=O)N(C)C)ccc2C)oc1C` is lower in “hERG current change (%, negative = inhibition) at 10uM” value: 15.3% for the first, -12.3% for the second.

Going from `CC(=O)c1cccc(N(C(=O)Cn2nnc3ccccc32)C(C(=O)NCC2CCCO2)c2ccc(N3CCOCC3)cc2)c1` (stereo not drawn) to `CCn1c(SCC(=O)Nc2ccc(N3CCOCC3)cc2)nnc1-c1ccncc1`, the “hERG current change (%, negative = inhibition) at 10uM” value rises from 2.47% to 13.6%.

Compared with `CC(=O)N1c2ccc(S(=O)(=O)N3CCC(C(=O)N4CCC(C)CC4)CC3)cc2CC1C` (stereo not drawn), `CC1CCN(C(=O)C2CCC(=O)N(Cc3ccc(Cl)cc3)C2)CC1` (stereo not drawn) is lower in “hERG current change (%, negative = inhibition) at 10uM” value: 14.9% for the first, -4.43% for the second.

First: CC(C)(C)OC(=O)N1CCN(C(=O)[C@H](Cc2ccc(O)cc2)n2cc(CCO)nn2)CC1
Second: CC(C)C[C@H](NC(=O)[C@H](Cc1ccccc1)n1c(=O)[nH]c2ccccc2c1=O)C(=O)N1CCC[C@@H]1C(=O)O
The “hERG current change (%, negative = inhibition) at 10uM” value of the first is lower: 4.52% for the first, 9.27% for the second.

Compared with `O=C(COC(=O)c1cncc(Br)c1)Nc1nnc(-c2ccccc2)o1`, `COc1ccccc1OCCC(=O)OCC(=O)Nc1cccc(Br)c1` is lower in “hERG current change (%, negative = inhibition) at 10uM” value: 6.48% for the first, -5.06% for the second.

Compared with `Cc1cc(=O)c2ccc3ccccc3c2[nH]1`, `COC(=O)COc1ccc2c(=O)c(-c3ccccc3OC)coc2c1` is higher in “hERG current change (%, negative = inhibition) at 10uM” value: 7.45% for the first, 10.2% for the second.

Compared with `Cc1ccc(C)c(OCCCN2CCNCC2)c1.Cl`, `CCOC(=O)C1=C(C)N(CCCC(=O)O)C(=O)NC1c1ccc(Br)cc1` (stereo not drawn) is lower in “hERG current change (%, negative = inhibition) at 10uM” value: 13.7% for the first, -1.29% for the second.

Compared with `Cc1ccc(NC(=O)C2CCCN(S(=O)(=O)c3ccc4[nH]c(=O)ccc4c3)C2)nc1` (stereo not drawn), `COc1ccc(S(=O)(=O)N2CC(O)CC2C(=O)Nc2cccnc2)cc1` (stereo not drawn) is higher in “hERG current change (%, negative = inhibition) at 10uM” value: 8.74% for the first, 11.1% for the second.

First: COc1ccc(C2CC(c3ccccc3)n3nnnc3N2)cc1 (stereo not drawn)
Second: S=c1[nH]nc(COc2ccccc2)n1/N=C/c1ccncc1
The “hERG current change (%, negative = inhibition) at 10uM” value of the first is higher: 10.4% for the first, 7.06% for the second.

First: Oc1c(Br)cc(Br)cc1Oc1ccc(Br)cc1Br
Second: COC(=O)C(C)Sc1nnc(Cc2cc(=O)[nH]c(=O)[nH]2)n1-c1cccc(OC)c1 (stereo not drawn)
The “hERG current change (%, negative = inhibition) at 10uM” value of the first is lower: 5.75% for the first, 11.5% for the second.

Going from `CNc1nc(N)c([N+](=O)[O-])c(Nc2ccccc2OC)n1` to `Cc1nn(-c2ccccn2)c(N)c1N=O`, the “hERG current change (%, negative = inhibition) at 10uM” value falls from 14% to -23.4%.

Compared with `Cc1ccc(Cn2c(=N)n(CC(O)COc3ccccc3)c3ccccc32)cc1.Cl` (stereo not drawn), `CCCOC(c1ccccc1)(c1ccc(C(F)(F)F)cc1)C(Oc1nc(C)cc(C)n1)C(=O)O` (stereo not drawn) is higher in “hERG current change (%, negative = inhibition) at 10uM” value: -68.9% for the first, 18.1% for the second.

First: COc1ccc(/C=N\N=C(N)N)cc1.O=[N+]([O-])O
Second: CCS(=O)(=O)c1ccc(O)c(NC(=O)/C=C/c2ccccc2)c1
The “hERG current change (%, negative = inhibition) at 10uM” value of the first is higher: -1.01% for the first, -1.18% for the second.

Going from `CCOC(=O)c1c(NC(=S)Nc2ccccc2C)sc2c1CCC2` to `Cc1cc(C)cc(-n2nnc(C(=O)NCc3ccccc3)c2N)c1`, the “hERG current change (%, negative = inhibition) at 10uM” value falls from 7.79% to 7%.

Going from `CC1(C)Cc2c(sc(NC(=O)C(=O)N3CCN(CCO)CC3)c2C(N)=O)CO1` to `CC(C)CC1NC(=O)N(CC(=O)Nc2cc(F)ccc2F)C1=O` (stereo not drawn), the “hERG current change (%, negative = inhibition) at 10uM” value falls from 13.4% to -5.68%.

Compared with `CC(c1ccc(Br)cc1)N1CC23C=CC(O2)C(C(=O)O)C3C1=O` (stereo not drawn), `C/C(=N\O)C(C)(C)Nc1ccc(Br)cc1` is higher in “hERG current change (%, negative = inhibition) at 10uM” value: -5.38% for the first, 15.8% for the second.

First: CCOc1c(C(=O)CC)cc2c(C)cc(=O)oc2c1C
Second: CCCCc1c(C)nc2ccc(C)cc2c1SCCC(=O)O
The “hERG current change (%, negative = inhibition) at 10uM” value of the first is lower: -18.9% for the first, 0.52% for the second.

First: Cc1noc(C)c1COC(=O)c1cccnc1SCC(=O)Nc1ccc2c(c1)OCO2
Second: Cc1ccc(CNC(=O)c2cc(C3CC3)nc3c2cnn3C(C)C)cc1
The “hERG current change (%, negative = inhibition) at 10uM” value of the first is higher: -1.35% for the first, -43.8% for the second.

First: OC1/C(=C/c2ccc(C(F)(F)F)cc2)N2CCC1CC2 (stereo not drawn)
Second: O=C1C2CCN(CC2)C12CC2c1ccc(C(F)(F)F)cc1 (stereo not drawn)
The “hERG current change (%, negative = inhibition) at 10uM” value of the first is higher: 28% for the first, 16.8% for the second.

Going from `CCS(=O)(=O)n1nc(-c2ccc(C)cc2)nc1N` to `CCc1ccc(-c2ccc3nnc(SC)n3n2)cc1`, the “hERG current change (%, negative = inhibition) at 10uM” value falls from -0.405% to -23%.

First: Cl.N=c1sccn1CC(=O)NCCc1ccc(Cl)cc1
Second: O=C(NCc1ccncc1)Nc1cccc(Cl)c1
The “hERG current change (%, negative = inhibition) at 10uM” value of the first is lower: -26.3% for the first, -8.74% for the second.

First: O=[N+]([O-])c1cccc(/C=N/Nc2cc(N3CCOCC3)ncn2)c1
Second: C/C(=C\c1ccc(C(=O)O)cc1)c1ccc2c(c1)C(C)(C)CCC2(C)C
The “hERG current change (%, negative = inhibition) at 10uM” value of the first is lower: 5.8% for the first, 18.3% for the second.

Compared with `Cc1cc(C)c(S(N)(=O)=O)c(C)c1-n1cnnn1`, `CCOCCCn1c(=S)[nH]c2cc(C(=O)NCCN(CC)CC)ccc2c1=O` is lower in “hERG current change (%, negative = inhibition) at 10uM” value: 7.82% for the first, -23.2% for the second.
